Laboratory results from publication PMC10336126.
These are yes or no findings as the source states them, for the method shown. For part of these data: Binding seen in cells or lysates may run through a third protein. Some binding calls cover weakened binding; strength is not graded here.

Sequences of proteins named here, by UniProt entry; tags and fusion partners are left off.
UniProt P29539: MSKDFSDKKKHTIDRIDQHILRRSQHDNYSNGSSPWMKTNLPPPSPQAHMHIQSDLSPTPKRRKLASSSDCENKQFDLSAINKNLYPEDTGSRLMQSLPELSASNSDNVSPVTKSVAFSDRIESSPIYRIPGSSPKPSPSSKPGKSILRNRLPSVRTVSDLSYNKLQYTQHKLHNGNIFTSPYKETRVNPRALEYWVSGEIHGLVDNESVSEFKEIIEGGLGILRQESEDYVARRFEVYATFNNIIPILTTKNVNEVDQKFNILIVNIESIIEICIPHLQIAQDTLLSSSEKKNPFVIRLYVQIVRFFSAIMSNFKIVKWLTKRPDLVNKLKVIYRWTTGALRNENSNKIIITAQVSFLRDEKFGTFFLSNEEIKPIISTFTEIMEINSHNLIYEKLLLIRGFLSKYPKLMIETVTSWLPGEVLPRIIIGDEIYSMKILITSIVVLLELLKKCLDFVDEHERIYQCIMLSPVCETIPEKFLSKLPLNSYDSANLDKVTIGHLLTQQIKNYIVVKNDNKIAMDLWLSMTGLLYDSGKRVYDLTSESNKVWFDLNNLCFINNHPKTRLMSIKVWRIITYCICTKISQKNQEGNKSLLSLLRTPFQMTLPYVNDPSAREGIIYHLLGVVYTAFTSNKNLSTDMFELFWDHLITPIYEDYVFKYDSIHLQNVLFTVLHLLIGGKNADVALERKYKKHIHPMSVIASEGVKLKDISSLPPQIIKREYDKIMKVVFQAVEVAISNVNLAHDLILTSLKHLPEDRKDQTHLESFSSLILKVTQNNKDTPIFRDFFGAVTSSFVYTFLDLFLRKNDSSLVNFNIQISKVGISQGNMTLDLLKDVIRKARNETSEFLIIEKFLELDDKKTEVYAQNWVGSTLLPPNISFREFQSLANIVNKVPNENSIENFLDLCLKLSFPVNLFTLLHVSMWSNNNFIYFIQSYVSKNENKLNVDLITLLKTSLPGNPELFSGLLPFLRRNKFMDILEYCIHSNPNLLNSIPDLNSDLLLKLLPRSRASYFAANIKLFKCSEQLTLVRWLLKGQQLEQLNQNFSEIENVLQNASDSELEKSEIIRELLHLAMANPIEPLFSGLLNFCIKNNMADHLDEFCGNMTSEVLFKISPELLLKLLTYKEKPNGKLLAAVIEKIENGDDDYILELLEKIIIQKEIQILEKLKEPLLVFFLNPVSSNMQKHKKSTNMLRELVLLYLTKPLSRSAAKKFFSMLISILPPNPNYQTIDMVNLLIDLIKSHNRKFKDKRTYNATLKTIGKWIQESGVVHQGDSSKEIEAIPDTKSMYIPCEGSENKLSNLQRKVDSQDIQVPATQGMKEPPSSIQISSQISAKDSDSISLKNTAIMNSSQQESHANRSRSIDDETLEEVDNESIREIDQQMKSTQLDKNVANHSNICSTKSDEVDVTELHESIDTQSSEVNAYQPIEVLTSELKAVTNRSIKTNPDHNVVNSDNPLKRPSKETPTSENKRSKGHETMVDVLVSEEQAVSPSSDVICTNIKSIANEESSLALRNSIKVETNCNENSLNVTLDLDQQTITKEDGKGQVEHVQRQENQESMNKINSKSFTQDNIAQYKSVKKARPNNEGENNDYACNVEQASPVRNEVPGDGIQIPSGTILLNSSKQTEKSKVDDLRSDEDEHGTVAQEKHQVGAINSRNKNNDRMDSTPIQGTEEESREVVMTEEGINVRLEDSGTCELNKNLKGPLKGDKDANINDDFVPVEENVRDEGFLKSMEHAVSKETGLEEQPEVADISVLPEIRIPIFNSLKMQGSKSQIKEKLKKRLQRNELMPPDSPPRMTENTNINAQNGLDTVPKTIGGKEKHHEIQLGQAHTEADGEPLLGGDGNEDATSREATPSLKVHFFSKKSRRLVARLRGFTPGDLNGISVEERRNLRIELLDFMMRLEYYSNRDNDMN
UniProt Q00416: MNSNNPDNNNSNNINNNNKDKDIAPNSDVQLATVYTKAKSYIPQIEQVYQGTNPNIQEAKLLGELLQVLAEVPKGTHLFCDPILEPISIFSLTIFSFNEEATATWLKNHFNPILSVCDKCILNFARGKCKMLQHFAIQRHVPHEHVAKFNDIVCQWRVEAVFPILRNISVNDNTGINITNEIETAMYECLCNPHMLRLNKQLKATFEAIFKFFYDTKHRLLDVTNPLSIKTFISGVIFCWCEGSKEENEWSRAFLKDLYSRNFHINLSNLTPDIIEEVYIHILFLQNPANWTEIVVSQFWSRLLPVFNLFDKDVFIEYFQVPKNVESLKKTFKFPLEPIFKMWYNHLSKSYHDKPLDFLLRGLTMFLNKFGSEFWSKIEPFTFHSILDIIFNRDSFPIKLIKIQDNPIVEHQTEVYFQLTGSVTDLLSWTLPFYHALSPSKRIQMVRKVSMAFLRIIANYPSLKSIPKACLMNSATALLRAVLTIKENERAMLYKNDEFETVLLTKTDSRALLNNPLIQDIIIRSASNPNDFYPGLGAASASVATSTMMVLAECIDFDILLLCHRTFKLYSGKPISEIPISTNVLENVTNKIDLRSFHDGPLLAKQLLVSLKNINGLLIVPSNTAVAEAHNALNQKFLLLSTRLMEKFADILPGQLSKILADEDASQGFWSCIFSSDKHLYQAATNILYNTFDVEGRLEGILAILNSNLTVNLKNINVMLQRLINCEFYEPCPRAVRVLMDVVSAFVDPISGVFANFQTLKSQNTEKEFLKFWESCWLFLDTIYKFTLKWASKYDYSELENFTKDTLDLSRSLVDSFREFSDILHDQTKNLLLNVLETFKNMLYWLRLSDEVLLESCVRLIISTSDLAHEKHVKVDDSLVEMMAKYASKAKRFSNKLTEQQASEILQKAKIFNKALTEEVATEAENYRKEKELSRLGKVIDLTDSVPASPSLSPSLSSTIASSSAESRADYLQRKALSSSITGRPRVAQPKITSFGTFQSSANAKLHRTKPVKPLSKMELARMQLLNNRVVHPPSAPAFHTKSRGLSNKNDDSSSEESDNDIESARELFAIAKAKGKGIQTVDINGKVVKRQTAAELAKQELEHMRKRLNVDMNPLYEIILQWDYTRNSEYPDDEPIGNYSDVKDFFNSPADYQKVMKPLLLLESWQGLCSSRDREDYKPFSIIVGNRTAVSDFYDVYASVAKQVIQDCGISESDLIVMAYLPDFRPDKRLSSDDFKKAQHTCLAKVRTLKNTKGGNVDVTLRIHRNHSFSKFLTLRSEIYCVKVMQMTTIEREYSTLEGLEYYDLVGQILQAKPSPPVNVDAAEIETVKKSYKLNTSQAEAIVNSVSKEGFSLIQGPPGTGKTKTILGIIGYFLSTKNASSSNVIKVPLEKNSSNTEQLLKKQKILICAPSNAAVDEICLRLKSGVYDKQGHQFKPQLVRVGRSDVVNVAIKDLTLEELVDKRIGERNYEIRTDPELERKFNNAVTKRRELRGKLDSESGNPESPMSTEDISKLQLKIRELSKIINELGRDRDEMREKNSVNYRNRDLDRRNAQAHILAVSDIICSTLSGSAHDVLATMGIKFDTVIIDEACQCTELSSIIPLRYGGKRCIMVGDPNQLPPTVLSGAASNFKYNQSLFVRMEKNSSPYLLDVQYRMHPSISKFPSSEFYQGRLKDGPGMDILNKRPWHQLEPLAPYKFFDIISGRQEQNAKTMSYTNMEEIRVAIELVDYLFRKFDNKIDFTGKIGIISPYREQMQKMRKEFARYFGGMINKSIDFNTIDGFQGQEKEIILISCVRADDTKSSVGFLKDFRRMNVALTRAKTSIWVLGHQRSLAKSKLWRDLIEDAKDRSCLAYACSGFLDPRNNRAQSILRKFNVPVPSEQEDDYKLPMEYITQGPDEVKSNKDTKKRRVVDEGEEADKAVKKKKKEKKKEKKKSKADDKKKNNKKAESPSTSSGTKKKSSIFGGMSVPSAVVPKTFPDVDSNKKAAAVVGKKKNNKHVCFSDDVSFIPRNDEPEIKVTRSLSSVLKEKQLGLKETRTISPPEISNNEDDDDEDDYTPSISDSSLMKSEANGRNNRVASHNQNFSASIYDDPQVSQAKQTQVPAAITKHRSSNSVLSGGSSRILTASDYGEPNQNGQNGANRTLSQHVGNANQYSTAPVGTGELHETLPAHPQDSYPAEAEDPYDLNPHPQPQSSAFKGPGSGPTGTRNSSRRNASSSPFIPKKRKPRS
UniProt P32598: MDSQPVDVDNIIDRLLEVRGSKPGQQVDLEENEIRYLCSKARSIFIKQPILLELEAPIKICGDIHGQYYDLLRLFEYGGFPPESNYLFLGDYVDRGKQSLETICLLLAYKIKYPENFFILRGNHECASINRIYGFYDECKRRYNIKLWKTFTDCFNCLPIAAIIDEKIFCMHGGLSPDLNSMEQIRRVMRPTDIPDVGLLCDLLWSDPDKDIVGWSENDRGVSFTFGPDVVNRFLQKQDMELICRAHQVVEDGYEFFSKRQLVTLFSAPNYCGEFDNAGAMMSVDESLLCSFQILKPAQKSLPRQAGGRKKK

Columns and labels:
[1] = biological target: Rif1-CBP, purified by tandem affinity purification (budding yeast (endogenous in yeast cells)) (UniProt P29539); experiment: tandem affinity purification from yeast cells, partner found in the purified complex; Sen1-CBP or Rif1-CBP purified by tandem affinity purification from yeast cells; Glc7 co-purified
[2] = biological target: Sen1-TAP, endogenously expressed (budding yeast (endogenous in yeast cells)) (UniProt Q00416); experiment: as above
[3] = biological target: Sen1-TAP, endogenously expressed (budding yeast (endogenous in yeast cells)) (UniProt Q00416); experiment: co-IP; yeast whole cell extract; anti-FLAG M2 agarose, calmodulin Sepharose beads or antibody on Protein A/G Sepharose, 4 °C; washes with 350 mM NaCl, 0.1% NP-40; immunoblot; also cells in SD (+Glu) or SD-C (-Glu) medium for 2 h (Sen1-Glc7 increased, Rif1-Glc7 unaffected without glucose)

Measured: binding

Glc7 (protein phosphatase 1 catalytic subunit), endogenously expressed (from UniProt P32598 1-312) (enzyme)
binds: all assays above
